# Laboratory results reported in PubChem BioAssay AID720709 (National Center for Advancing Translational Sciences (NCATS), 2013).
# “And” between values parts separate entries of the source, which are not always exact repeats. Identical values can stand only once. About 520 (0.14%) of roughly 360,000 compounds were called active. Inconclusive results, whose numbers are uncertain, are shown with a selection of clear calls. Calls come from the whole dose curve; as a rule, active = well fitted inhibition curve with a large enough effect; inconclusive = small, poorly fitted or top-dose-only effect; inactive = no such curve, though single readings can be large or run the other way. Potencies beside an inconclusive call are fits to weak or partial responses and may not hold up.
# Biological target: Rap guanine nucleotide exchange factor 3 (Homo sapiens) (UniProt O95398)
# Test: qHTS for Antagonist of cAMP-regulated guanine nucleotide exchange factor 3 (EPAC1): primary screen; note: nearly all actives have a fitted effect of over 50% in size;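 for activity change, negative = inhibition: plate controls were vehicle for no effect and positive control for full effect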
# Conditions: EPAC1 GEF assay, Rap1b-BODIPY-GDP exchange fluorescence; activity change, negative = inhibition: at 115 µM (top of the series)
# Potency is the fitted concentration of half-maximal effect; tags give direction and shape of the fitted curve.
# UniProt O95398, sequence (O95398 whole entry, looked up): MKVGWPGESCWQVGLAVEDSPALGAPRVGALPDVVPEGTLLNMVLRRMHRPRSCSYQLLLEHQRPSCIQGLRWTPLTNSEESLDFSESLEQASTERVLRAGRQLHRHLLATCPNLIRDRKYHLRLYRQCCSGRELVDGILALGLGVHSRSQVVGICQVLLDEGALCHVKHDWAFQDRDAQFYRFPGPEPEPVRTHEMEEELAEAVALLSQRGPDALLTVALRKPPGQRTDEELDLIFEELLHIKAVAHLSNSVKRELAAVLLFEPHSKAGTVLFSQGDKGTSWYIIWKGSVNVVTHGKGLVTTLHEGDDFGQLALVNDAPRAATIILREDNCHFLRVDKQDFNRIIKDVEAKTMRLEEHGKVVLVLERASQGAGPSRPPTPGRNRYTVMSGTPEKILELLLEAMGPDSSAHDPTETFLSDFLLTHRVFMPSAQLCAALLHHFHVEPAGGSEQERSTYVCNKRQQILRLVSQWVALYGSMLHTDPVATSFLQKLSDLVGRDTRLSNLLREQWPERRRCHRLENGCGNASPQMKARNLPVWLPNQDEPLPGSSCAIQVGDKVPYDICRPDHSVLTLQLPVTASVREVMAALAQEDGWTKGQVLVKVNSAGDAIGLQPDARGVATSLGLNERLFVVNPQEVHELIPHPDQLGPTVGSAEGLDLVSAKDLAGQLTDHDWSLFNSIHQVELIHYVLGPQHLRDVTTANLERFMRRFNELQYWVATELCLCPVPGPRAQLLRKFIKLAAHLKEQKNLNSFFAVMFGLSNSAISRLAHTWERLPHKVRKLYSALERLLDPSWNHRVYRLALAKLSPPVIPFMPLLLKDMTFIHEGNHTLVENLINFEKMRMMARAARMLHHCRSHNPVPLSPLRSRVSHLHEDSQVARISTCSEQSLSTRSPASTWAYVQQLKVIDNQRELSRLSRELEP
Compound,Potency,"activity change, negative = inhibition"
C/C=C(/C)C(=O)OC1c2c(ccc3ccc(=O)oc23)OC(C)(C)C1OC(=O)/C(C)=C\C (stereo unspecified),"inconclusive: 89.1 µM [inhibitor, partial curve]",
CCOc1cc(/C=C2\C(=O)N(c3cccc(C(F)(F)F)c3)C(=O)c3ccccc32)ccc1O,,inactive: 5.63%
O=C(Nc1ccccc1)c1cc(C2CCCCN2C(=O)c2cccs2)on1 (stereo unspecified),"inconclusive: 89.1 µM [inhibitor, partial curve]",
COc1cc(C)c(CN2CCN(CC(=O)Nc3ccccc3C(=O)NC3CC3)CC2)cc1OC,,inactive: -7.56%
O=C1CCCS(=O)(=O)c2ccccc21,"inconclusive: 100 µM [inhibitor, single point]",
Cc1ccccc1NC1=C(Cl)C(=O)N(C2CCCCC2)C1=O,"inconclusive: 31.6 µM [inhibitor, partial curve]",
O=C(O)c1cccc2cccc(-c3c4ccc(=O)c(O)c-4oc4c(O)c(O)ccc34)c12,active: 31.6 µM,
Cc1cc(S(=O)(=O)N2CCOCC2)ccc1OCC(=O)N1CCC(C)CC1,"inconclusive: 100 µM [inhibitor, single point]",
COc1cccc2cc(C(C)N(CCCN3CCOCC3)C(=S)Nc3ccccc3C)oc12 (stereo unspecified),"inconclusive: 70.8 µM [inhibitor, partial curve]",
CCCCc1nnc(NC(=O)c2ccc3[nH]c(=O)c(=O)[nH]c3c2)s1,"inconclusive: 3.55 µM [inhibitor, full curve]",
NS(=O)(=O)c1ccc(OC(=O)CNC(=O)OCc2ccccc2)cc1,"inconclusive: 56.2 µM [inhibitor, partial curve]",
C=CCOC(=O)C1=C(C)OC(N)=C(C#N)C1c1c(C)nn(-c2ccccc2)c1Cl (stereo unspecified),"inconclusive: 100 µM [inhibitor, single point]",
CCOc1ccc(NC2=NCC(=O)N2Cc2cccs2)cc1,,inactive: 5.63%
O=C(Nc1cccc(Cl)c1)N1CCOCC1,,inactive: -27.5%
CC(C)(C)C(=O)/C=c1\s/c(=C\c2ccc(-c3ccc([N+](=O)[O-])cc3)o2)c(=O)n1CC(=O)NC(N)=O,,inactive: 18.9%
CN(C(=O)c1cc(-c2ccccc2)on1)C1CCCCC1,"inconclusive: 89.1 µM [inhibitor, partial curve, poor fit]",
O=C(Nc1cc(S(=O)(=O)N2CCCCC2)ccc1O)c1ccccc1NS(=O)(=O)c1ccc(F)cc1,"inactive and inconclusive: 50.1 µM [inhibitor, partial curve]",
COC(=O)c1ccc(COc2ccccc2/C=C/C(=O)c2ccc(OCC(=O)O)cc2)cc1,"inconclusive: 79.4 µM [inhibitor, single point]",
Cc1cccc(Cn2c(O)c(N=NC(=S)Nc3ccccc3F)c3ccccc32)c1,,inactive: -2.61%
COC(=O)c1ccccc1Sc1ncnc2onc(C)c12,"inconclusive: 89.1 µM [inhibitor, single point]",
CCOC1(c2ccccc2)OC(=O)c2ccccc21 (stereo unspecified),,inactive: -0.686%

Compound,Potency,"activity change, negative = inhibition"
O=C(Nc1ccccc1)Nc1ncc([N+](=O)[O-])s1,"inconclusive: 79.4 µM [inhibitor, partial curve, poor fit]",
Fc1ccc(-c2cc(C(F)(F)F)nc(NCc3cccs3)n2)cc1,"inconclusive: 100 µM [inhibitor, partial curve]",
CC1(C)OC2OC(C(=O)N/N=C/c3cc(Br)ccc3O)C3OC(C)(C)OC3C2O1 (stereo unspecified),"inconclusive: 100 µM [inhibitor, single point]",
COc1cccc(Nc2ccc([N+](=O)[O-])c3nonc23)c1,"inconclusive: 14.1 µM [inhibitor, full curve, poor fit]",
CCOC(=O)c1[nH]c2c(c1-c1ccccc1)C(=O)CC(c1ccc(OCC)cc1)C2 (stereo unspecified),"inconclusive: 89.1 µM [inhibitor, partial curve]",
Cc1ccccc1Nc1nnc(-c2ccc(C(=O)NCCO)cc2)c2ccccc12,"inconclusive: 2.82 µM [inhibitor, full curve, poor fit]",
Cc1ccc(C)c(NC(=O)CCN2CCc3ccccc3C2)c1,"inconclusive: 100 µM [inhibitor, partial curve, poor fit]",
COc1ccc(C(=O)/C=C/c2ccc(N(C)C)cc2)c(OC)c1,,inactive: 16.7%
COc1ccc(C2=CC3=C(Br)C(=O)C(C)(OC(=O)c4ccco4)C(=O)C3=CO2)cc1 (stereo unspecified),"inconclusive: 50.1 µM [inhibitor, partial curve]",
COc1ccc(S(=O)(=O)NC(C)C(=O)N2CCCC2)cc1Cl (stereo unspecified),"inconclusive: 39.8 µM [inhibitor, full curve, poor fit]",
CCOC(=O)Cc1[nH]nc2c1C(c1cccc(OC)c1OC)C(C#N)=C(N)O2 (stereo unspecified),"inconclusive: 56.2 µM [inhibitor, partial curve]",
O=C(CCSCCC(=O)NN=Cc1ccccc1O)NN=Cc1ccccc1O,"inconclusive: 100 µM [inhibitor, partial curve]",
Cc1ccc(NC(=O)c2ccc3nc[nH]c3c2)c(O)c1,,inactive: 9.19%
CC(=O)Nc1ccc(S(=O)(=O)N(Cc2cccnc2)Cc2cc3ccccc3[nH]c2=O)cc1,"inconclusive: 14.1 µM [inhibitor, full curve]",
O=C(NCc1ccc(F)cc1)c1cccc2c1C(=O)c1ccc(N3CCC(Cc4ccccc4)CC3)cc1S2(=O)=O,"inconclusive: 100 µM [inhibitor, single point]",
O=c1c(Cl)cc(Cl)nn1-c1ccccc1,"inconclusive: 100 µM [inhibitor, single point]",
O=C(Cn1nnc(-c2ccc(CN3CCOCC3)cc2)n1)N(c1ccccc1)c1ccccc1,"inconclusive: 22.4 µM [inhibitor, full curve]",
CC1CCN(c2c(NCC3CCC(C(=O)NCCc4ccc(Cl)cc4)CC3)c(=O)c2=O)CC1 (stereo unspecified),"inconclusive: 2.82 µM [inhibitor, full curve, poor fit]",
CCOCCCN(C)C1CCN(C(=O)c2oc3ccccc3c2NC(=O)Cc2cccc([N+](=O)[O-])c2)CC1,"inconclusive: 31.6 µM [inhibitor, single point]",
COc1ccc(NC(=O)c2c3c(nc4ccccc24)CCC3)cc1S(=O)(=O)N1CCOCC1,"inconclusive: 63.1 µM [inhibitor, partial curve, poor fit]",
